# Measured values published in ChEMBL document CHEMBL4888484, “Replenishing the malaria drug discovery pipeline: Screening and hit evaluation of the MMV Hit Generation Library 1 (HGL1) against asexual blood stage Plasmodium falciparum ,using a nano luciferase reporter read-out” (2022).
# Among all 150,000 compounds or so, about 540 (0.36%) showed an effect of 50% or more. The list shows a part of the results.
# System: Plasmodium falciparum
# Test: Primary screen in NF54 nanoGlo assay, in single point, at 2uM, 72h; a lower Z score goes with more inhibition
# Format: functional, Erythrocyte
# Conditions: timepoint 72 hour
Compound,% Inhibition [%],Z score
COc1ccc(-c2noc(-c3cc(-c4ccccc4)nc4ccccc34)n2)cc1,-1,0.27
CO[C@H]1C[C@H](C(=O)N2CC(C)(C)OC(C)(C)C2)N(C(C)=O)C1,0,0.07
CN(Cc1ccc[nH]1)C(=O)C1(Cc2ccc(F)cc2)CCOCC1,-9,1.12
CC1=NO[C@@H](CNc2nc3ccccc3o2)C1,-4,0.79
Clc1ccccc1C[C@H]1CN(CCCn2cccn2)CCO1,4,-0.59
COc1ccc(C(=O)N2CCN(c3ccc(NC(=O)Cc4ccc(F)cc4)cn3)CC2)cc1,-11,1.33
CCNC(=O)N1CC(C(=O)NCc2ccccc2F)CC(c2ccc(F)c(C)c2)C1 (configuration not stated),-7,0.96
CC(C)(C)OC(=O)N1CC(NC(=O)C2CC2c2ccccc2C(F)(F)F)C1 (configuration not stated),39,-5.02
CC(F)(F)c1ccc(C(=O)N[C@@H]2CCCC[C@H]2S(C)(=O)=O)cn1,-4,0.51
CCCNC(=O)C1CCN(c2nnc(-c3ccc(OC)cc3)o2)CC1,-11,1.64
CCOC1CC(N(C)C(=O)c2cn3cccnc3n2)C12CCCC2 (configuration not stated),-11,1.53
CC(C)(C)C(=O)N1CCC(N2CCc3cc(Br)cc(F)c3C2)CC1,-12,1.44
O=C(NC1CCCCC1)N1CCC[C@H](c2nnnn2-c2ccccc2)C1,-7,1.07
Cc1ccccc1-c1onc(C)c1C(=O)NCCC1(C)OCCO1,-8,1.37
CCOc1ccccc1-c1nc(Cn2c(=O)c3cnc(-c4ccncc4)nc3n(C)c2=O)c(C)o1,5,-0.82
CCS(=O)(=O)c1ccc(N2CCN(Cc3n[nH]c(C)n3)CC2)cc1,-9,1.7
CCCc1nc(C)cc(NCc2n[nH]c(=O)[nH]2)n1,-13,1.65
COc1ncc(CN2CCc3[nH]nc(C)c3C2)cn1,-1,0.14
COc1ccccc1CNC(=O)c1coc(COc2cccc(F)c2F)n1,1,-0.13
Cc1nsc(-c2ccccc2N(C)C)n1,-11,1.13
CNC(=O)[C@@H]1CN(C(=O)c2cc(-c3ccccc3)n(C)c2C)C[C@H]1CO,-1,0.17
Cc1ccc2c(c1)N(C(=O)Cn1cccc1-c1nc(-c3ccc(Br)cc3)no1)CCO2,0,0

Compound,% Inhibition [%],Z score
O=C(NCc1cccnc1-c1cccnc1)c1cccnc1,-8,1.22
Cc1nn(CCNS(=O)(=O)c2cccs2)c(C)c1-c1cccs1,19,-2.39
Cn1cncc1COc1ccc2c(c1)CCCNC2=O,-2,0.24
CCc1nc(NC(=O)c2sc(COc3ccc(Cl)c(C)c3)nc2C)sc1C(=O)OC,-11,1.61
COCC1(O)CN(C(=O)[C@H](C)OC2CCCCCC2)C1,-13,1.39
CNC(=NC[C@H](C)N1CCc2ccccc21)NC,-12,1.74
CCOc1ccc(C(=O)NCCN2C(=O)COC2=O)cc1,11,-1.46
Cc1ccc(-c2cccc(-c3ccn(Cc4ccc(C#N)cc4)n3)c2)nn1,-5,0.64
C[C@@H](CCOc1cnn(C)c1)OCc1ccccc1,-15,1.64
CN(C[C@H](O)C(F)(F)F)C(=O)CC1CN(C(=O)OC(C)(C)C)C1,-10,0.89
COc1ccc(C(=O)Nc2ccccc2NC(=O)c2ccco2)c(OC)c1,7,-1.27
CCCN1C(=O)[C@H]2C(C(=O)Nc3ccc(OC)cc3)[C@H]3C=C[C@@]2(O3)C1C(=O)NC1CCCCC1 (some centres not stated),6,-1
CCCNC(=O)c1sc(-n2nc(C)c(Cc3ccccc3Cl)c2C)nc1C,6,-1.12
COc1ccc(CCNC(=O)c2cc(-c3cc(Cl)cc(Cl)c3)oc2C)cc1,25,-3.4
CCN(CCC#N)S(=O)(=O)N1CCC[C@H](C)C1,34,-3.08
Cc1ccc(S(=O)(=O)Nc2ccc3c(c2)-c2ccccc2S(=O)(=O)N3)cc1,24,-2.72
COC(=O)c1cc(NC(=O)NCC(F)(F)F)c(C)cc1C,-3,0.6
O=C(CCc1c[nH]c2ccccc12)N1CCC[C@H]1c1ccc[nH]1,8,-0.83
O=C(NS(=O)(=O)c1ccsc1)c1cnn2c1CCC2,3,-0.4
Cc1nc(C)c2c(n1)O[C@@H](CN1C(=O)CC3(CCCC3)CC1=O)C2,-4,0.61
CC[C@H](C)NC(=O)Cn1ccc2c(C)nn(C)c2c1=O,-21,2.06
CCCNC(=O)CN1C(=O)CN(C(=O)NCc2ccc(F)cc2)c2ccccc21,-18,2.23

Compound,% Inhibition [%],Z score
CCOc1ccc(Br)cc1NC(=O)NCCOC,0,0.06
c1ccc2cc(Cn3ccnc3)ccc2c1,1,-0.15
C[C@](O)(CNC(=O)C(=O)Nc1ccc(F)c(F)c1)c1ccc2c(c1)OCO2,-3,0.57
CN(CCc1cn[nH]c1)Cc1cc2n(n1)CCN(Cc1cccc(O)c1)C2,-11,1.99
CC(C)(COc1ncccc1C(F)(F)F)NC(=O)c1cc2n(n1)CCO2,-9,1.48
O=C(NCc1ccoc1)c1cccnc1O,-7,0.62
COc1cc(NC(=O)N(C)CC(F)(F)F)cc(OC)c1C(C)C,-2,0.3
CN(C)C(=O)c1cc(Br)ccc1O,-7,1.36
CCc1nccc(-c2c(-c3ccccc3)ncn2[C@H](C(=O)OC)C2CC2)n1,-7,1.13
C[C@@H](CC(=O)NC1(C(=O)O)CCC1)c1ccccc1,8,-0.76
C[C@H](Cc1cn(C)nn1)NS(=O)(=O)N1CCc2ccccc2C1,-3,0.41
CC(C)(C)[C@H](NC(=O)c1ccc(O)nc1)C(F)(F)F,-7,0.74
O=C(c1ccc2[nH]ccc2c1)N1CCC(Oc2cccc3cccnc23)CC1,-15,2.92
CC[C@@H](C(=O)N1CCc2[nH]c(=O)c(C#N)cc2C1)c1ccccc1,-7,1.12
O=C(Nc1[nH]ncc1-c1ccc2c(c1)OCO2)c1ccncc1Cl,2,-0.16
CC(C)N1C[C@]2(C)CN(C(=O)c3c[nH]c4ccccc34)C[C@](C)(C1)C2O (some centres not stated),-3,0.56
NC(=O)Cn1cnc(-c2ccccc2)c1-c1cc2c(cc1Cl)OCO2,3,-0.49
NC(=O)[C@H]1CCCN1CCC(=O)NCc1cccs1,-12,1.65
COc1ccc(-n2cnnc2CN2CCN(c3ccc(F)cc3)CC2)cc1,-16,1.5
CCCCCC(=O)Nc1cccc(C)c1C,-7,0.93
c1cc2c(cc1NC1CCCCCCC1)OCO2,-7,0.98
O=C(N[C@H]1CCCOCC1)c1ccc(F)c(Cl)c1,3,-0.54

Compound,% Inhibition [%],Z score
CC[C@H](NCC(=O)NC1CCCCC1)C(=O)OC,-1,0.18
Cc1ccc(S(=O)(=O)Nc2cnn(-c3ccccc3)n2)c(Br)c1,-15,1.58
c1ccc(-c2nc(Oc3cccnc3)c3ccccc3n2)cc1,4,-0.87
CC(C)(C)N(CC(N)=O)Cc1c(F)cncc1F,-3,0.48
CCCOc1ccc(CN(CCCN(C)C)C(=O)C2CCOCC2)cc1OC,-4,0.55
C#CCCC1(CCC(=O)N2CC[C@@H]2COC)N=N1,6,-0.88
Cc1c(C(=O)N2CCN(C(=O)OC(C)(C)C)C[C@H]2C)cnn1C,6,-1.09
COc1cccc(OCc2nc3c(c(=O)[nH]2)CCNC3)c1,-10,1.96
COC(=O)[C@H]1CCn2c(COc3ccccc3OC)nnc2C1,-5,0.7
CC[C@H](C)NC(=O)C(=O)Nc1ccccc1C,-20,2.63
CCOC(=O)NCCC(=O)NCCC[C@H]1CCCCO1,-4,0.49
CC(C)(C)CC(=O)N1CCC(N[C@H]2CCN(c3ccc(Cl)c(Cl)c3)C2=O)CC1,0,-0.05
CN1CCC2(CC1)CCN(C(=O)Cc1ccccc1OC(F)F)C2,-17,3.27
CCN(c1ccccc1)S(=O)(=O)c1cc(NC(=O)c2cccc(S(=O)(=O)N(C)c3ccc(C)cc3)c2)ccc1Cl,-6,0.95
COc1ccc(/C=C/c2nc(-c3ccc4c(c3)nc(C)c(=O)n4C)no2)cc1,3,-0.41
C[C@@H](CN1CCOCC1)C(=O)N(C)Cc1ccon1,-10,1.86
CCn1cnnc1CN(C)Cc1cc(C#N)n(C)c1C,-20,2.53
CCCCN(CC)S(=O)(=O)c1c(C)nc(O)nc1O,-6,0.68
O=C1N(CCCc2ccccc2)CCC[C@@]1(O)CNC1CCC1,-15,1.98
CCC(=O)Nc1nc2ccc(NC(=O)Nc3ccccc3Cl)cc2s1,2,-0.38
